Drawing on the RNAGym collection of RNA variant scans (doi:10.7554/elife.90254), this text covers self-cleavage for 56 variants.

First the molecules themselves.
B1: LINE1-mini (parent)
chain: GGCAGAGCUCAACACAGCGUGGCAAAGUGGCUGUGGCUAGACUGCC

Read counts are not given, so values of variants with three or more changes are uncertain.

The variants in the series derive from B1. The series can be described thus: self-cleavage, relative activity (ratio to wild type); higher = more cleavage; in vitro, sequencing; the parent is a self-cleaving ribozyme.
As to GGCGGAGGUCAACACAGCGUGCCAAAGUGGCUGUGGCUAGACUGCC [A4G C8G G22C], the self-cleavage turned out to be 0.03.

Regarding GGCGCAGCUCAACACAGCCUGGCAAAGUGGCUGUGGCUAGCCUGCC [A4G G5C G19C A41C], the self-cleavage was 0.2. The same measure for GGCGGAGCUCAGCACAGCUUGGCAAAGUGGCUGUGGCUAGACUGCC [A4G A12G G19U]: 0.01.

For GGCGCAGCUUAACGCAGCGUGGCAAAGUGGCUGUGGCUAGACUUCA [A4G G5C C10U A14G G44U C46A], the self-cleavage stood at 0.03.

In the case of GGCGGAGUUCAACACAGCGUGGCAAAGUGGCUUUGGCUAGAUUGCC [A4G C8U G33U C42U], the self-cleavage came out at 0.05. The same measure for GGCGGAGCUCAUCACAGCGCGGCAAAGUGGCUGUGGCUAGACUGCC [A4G A12U U20C]: 0.02; for GGCGGAACUGAACACAGCGUGGCAAAGUGGCUGUGGCUCGACUGCC [A4G G7A C10G A39C]: 0.01; for GGCGGAGCUCAGCACAGCGUGGGAAAGUGGCUGUGGCUAUCCUGCC [A4G A12G C23G G40U A41C]: 0.02.

As to GGCGGAGCUCAACAUAGAGUGGCAAAGUGGCUGUGGCUAGACUGCC [A4G C15U C18A], the self-cleavage came out at 0.02. GGCGGAGCUCAACACAGCGUGGCAAAGUGGAUGUGGCUAGACUACU [A4G C31A G44A C46U]: the self-cleavage stood at 0.01. As for GGCGGAGCUCAAAACAGCGUGGCAAAGUGGCUCUGGCUAGACUGCC [A4G C13A G33C], the self-cleavage was determined as 0.09. The same measure for GGCGUAGCUCAACACAGCGUGGCAAAGUGGCUCUGGCUAGACUGCG [A4G G5U G33C C46G]: 0.02; for GGCGGAGCUCAACUCAGCGUUGCAAAGUGGCUGUUGCUAGACUGCC [A4G A14U G21U G35U]: 0.09. The same measure for GGCGGAGCUAAACACAGCGUGGCAAAGUGGCUGUGCCUAGACUGCC [A4G C10A G36C]: 0; for GGCGGACCUCGAAACAGCCUCGCAAAGCGGCUGUGGCUAGCCUGCC [A4G G7C A11G C13A G19C G21C U28C A41C]: 0.02. For GGCGGAGCUCAACAAAGCGAGGCCAAGUGGCUGUGGCUAGACUGCC [A4G C15A U20A A24C], the self-cleavage was 0.02. To GGCGGAGCUCAAUACAGCGUGGCAGAGUGGCUUUGGCUAGACUGCC [A4G C13U A25G G33U] belongs 0.3. As for GGCGGAGCUAACCACAGCGUGGCAAAGUGGAUGUGGCUAGACUGAC [A4G C10A A12C C31A C45A], the self-cleavage is 0.

As to GGCGGAGCUCAACAUAGCAUGGCGAAGUGGAUGUGGCUAGACUGCC [A4G C15U G19A A24G C31A], the self-cleavage is 1.73. GGCGGAGCUGAACACAGCGUGGCAAAGUGGCUGUGGUUAGACUGUC [A4G C10G C37U C45U]: the self-cleavage worked out at 0.01.

For GGCGGAGCUCAACACAGCGUGGCAUAGUGGCUGUGGCUAGACUGUC [A4G A25U C45U], the self-cleavage turned out to be 0.25. The same measure for GGCGGAACUCAAAACAGGGUGGCAAAGUGGCUGUGGCUAGACUACC [A4G G7A C13A C18G G44A]: 0.12; for GGCGGAGCUCAACACAGCGUGGCGAAGUGGCUGUGGCUGGACUGCC [A4G A24G A39G]: 0.07. The same measure for GGCGGAUCUCACCACAGCGUGGCAAAGUGGCUGUGGUUAGACUGCC [A4G G7U A12C C37U]: 0.04; for GGCGGAGCUCAACACAGAGUGGCAAAGUGGCUGUGGCUAGAGUGCC [A4G C18A C42G]: 0.29. To GGCGGAGCUCAACACCCCGUGGCAAAGUGGCUGUGGAUAUACUGCC [A4G A16C G17C C37A G40U] belongs 0.04; to GGCGGAGCUGACCUCAACGUGGCAAAGUGGCUGUGGCUAGACUGCC [A4G C10G A12C A14U G17A], 0.02. Consider GGCGGAGCUCAACACGGCGUGGCAAAGUGGCUAUGGCUAGAUUGCC [A4G A16G G33A C42U], for which the self-cleavage was found to be 0.01. The same measure for GGCGUAGCUCAACACAGCGUGGCAAAGUGGCUGAGGCUAGACUGCC [A4G G5U U34A]: 0.01; for GGCGUAGCUCAACACAGCGUGGCAAAGUGGCUGCGGCUAGACUGCC [A4G G5U U34C]: 0.04; for GGCGGAGCUCAACGCAGCGUGGCAAAGGGGCUGUGGCUGGACUGCC [A4G A14G U28G A39G]: 0.03. The same measure for GGCGGACCUCACCACAGCGUGGCAAAGUGGCUAUGGCUAGACUCCC [A4G G7C A12C G33A G44C]: 0.02; for GGCGGAUCUCAACACAUCGUUGCAAAGUGGCUGAGGCUAGACUGCC [A4G G7U G17U G21U U34A]: 0.02. With GGCGUACUUCAACACAGCGUGGCAAAGUGGCUGCGGCUAGACUGGC [A4G G5U G7C C8U U34C C45G], the self-cleavage stood at 0.33. Regarding GGCGGAUCUCAAUACAGCGUGGCAAAGUGGCUGUGGCUAGACUGCC [A4G G7U C13U], the self-cleavage turned out to be 0.04. The same measure for GGCGGAGCUCAAAACAGUGUGGCAAAGUGGCUAUGGGUAGACUGCC [A4G C13A C18U G33A C37G]: 0.01; for GGCGGAGGUCAACACAGCGUGGCAAAGUGGCUGUGGCUAGAAUGCC [A4G C8G C42A]: 0.01. To GGCGGAGCUCAACACAGCGUGGUAAAGUGGCUGUGACUAUACUGCC [A4G C23U G36A G40U] belongs 0.8.

With GGCGGAGCUCAACACAGCGUGGCAAUGUGGCUGUGGCUAGACUGUC [A4G A26U C45U], the self-cleavage came to 2.06. For the variant GGCGCAGCUAAAUACAGCGUGUCAAAGUGGCUGUGGCUACACUGCC [A4G G5C C10A C13U G22U G40C], the self-cleavage amounted to 0.03. To GGCGCAGCUCAACACAGAGAGGCAAAGUGGAUGUGGCUAGACUGCC [A4G G5C C18A U20A C31A] belongs 0.07; to GGCGGAGCUCAACACGGCGUGGCAAAGUGGCUGUGGCUAUACUGCC [A4G A16G G40U], 0.05. Turning to GGCGAAGCCCAACACAGUGUGGCAAAGUGGCUGUGGCUAGACUGCC [A4G G5A U9C C18U], the self-cleavage stood at 0.02. Take GGCGGAGCUCAACACAGUGUGGCAAAGUAGCUGUGGUUAGACUGCC [A4G C18U G29A C37U]: the self-cleavage was 0.01. The same measure for GGCGAGCUCAAACACAGCGUGGCAAAGUGGCUGUGGCUAGACUGCC [A4G G5A A6G G7C C8U U9C C10A]: 0.01; for GGCGUAGCUUAACACAGCGUGGCAAAGUGGCUGUGGCUAGACUGCC [A4G G5U C10U]: 0.03; for GGCGUAGCUGAACACAGCGUGGCAAAGUGGCUGUGGCUAGACUGCC [A4G G5U C10G]: 0.05. GGCGGAGCUCAACACAGCGUGGCAAAGUGGGUGUGGUCAGACUGCC [A4G C31G C37U U38C]: the self-cleavage turned out to be 0.05. The same measure for GGCGGAGCUCAAAACAGGGUGGCAAAGUGGCUGUGGCUAGACUGUC [A4G C13A C18G C45U]: 0.04. Consider GGCGGAGCUCAACACAGUGUGGCAAAGUGUCUGUGGCUAGACUGCC [A4G C18U G30U], for which the self-cleavage was 0.06. On to GGCGGAGAUCAACACAGCGUGGCAAAGUGGCUUUGGCUAGACUGCC [A4G C8A G33U], for which the self-cleavage was 0.17. To GGCGGAGCUCAACACAGCGUGGCGAAGUGGCUCUGGCUAGACUGCC [A4G A24G G33C] belongs 0; to GGCGGAGCUAAACACAGCGUGGCAAAGUGGUUGUGGCUAGACUGCC [A4G C10A C31U], 0.02. To GGCGGAGAUCAACGCAGCGUGCCAAAGUGGCUGUGUCUAGACUGCC [A4G C8A A14G G22C G36U] belongs 1.5; to GGCGGAGCUCAAGACAGCGUGGCAAAAUGGCUGUGGCUAGACUGCU [A4G C13G G27A C46U], 0.1; to GGCGGAGCUCAGCACAUCGUAGCAAAGUGGCUGUGGCUAGACUGCC [A4G A12G G17U G21A], 0.06.
